From the BET-seq Pho4 binding data (Le et al. 2018)
The list shows a part of the results. The energies were worked out here from pooled read counts, against the library average; single values are noisy.

target: T1, Pho4 (S. cerevisiae) (UniProt P07270); experiment: relative binding free energy (BET-seq); higher = weaker binding; settings: reference: library average
T1 sequence: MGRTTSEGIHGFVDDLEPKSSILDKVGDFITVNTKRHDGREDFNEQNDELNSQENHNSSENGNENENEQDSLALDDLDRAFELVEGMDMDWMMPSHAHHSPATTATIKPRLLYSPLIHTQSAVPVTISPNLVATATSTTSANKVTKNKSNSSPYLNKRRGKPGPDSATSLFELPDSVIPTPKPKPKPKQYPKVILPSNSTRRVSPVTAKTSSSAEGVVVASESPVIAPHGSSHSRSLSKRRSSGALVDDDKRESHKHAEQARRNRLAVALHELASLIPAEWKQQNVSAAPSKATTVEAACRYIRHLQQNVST

Sequence	relative binding free energy
TTCGGCACGTGTATCG	-0.07 kcal/mol
GCCGGCACGTGAGGTG	-0.07 kcal/mol
ACTTGCACGTGGTGCG	-0.25 kcal/mol
TTGGGCACGTGTTTGC	-0.06 kcal/mol
GGTAGCACGTGTGACT	0.03 kcal/mol
TGGTTCACGTGGAAAT	0.4 kcal/mol
AGGTTCACGTGAGGCT	0.39 kcal/mol
TGTAACACGTGTGGGT	0.12 kcal/mol
TTAATCACGTGTTGGT	0.12 kcal/mol
TGTTTCACGTGTGTAT	0.3 kcal/mol
CGAGTCACGTGTTTAG	0.1 kcal/mol
GGGTTCACGTGAGTAA	0.44 kcal/mol
GATGTCACGTGGCGGT	0.07 kcal/mol
CAATTCACGTGGGTTT	0.2 kcal/mol
TGTCACACGTGATTGG	0.2 kcal/mol
TAGAGCACGTGAATAT	0.16 kcal/mol
TGAGGCACGTGCTCTT	0.02 kcal/mol
GGAGTCACGTGTAATT	0.12 kcal/mol
GGTGTCACGTGCAGTA	-0.05 kcal/mol
TGCGTCACGTGGAGAT	0.15 kcal/mol
AGAGGCACGTGAGTGA	0.06 kcal/mol
AGAAACACGTGTGGGT	0.07 kcal/mol
TGCATCACGTGATATT	0.27 kcal/mol
ATTGGCACGTGGTGGG	-0.11 kcal/mol
TTGAACACGTGTCAGT	0.16 kcal/mol

Sequence	relative binding free energy
GGAAGCACGTGGTGCA	-0.24 kcal/mol
GGATTCACGTGGAGTA	0.18 kcal/mol
AGATGCACGTGTAGGT	-0.05 kcal/mol
CGTTGCACGTGCAGTT	0 kcal/mol
GTTATCACGTGGAGCG	0.25 kcal/mol
CATTGCACGTGGGGTG	-0.15 kcal/mol
TTATGCACGTGATGAT	0.15 kcal/mol
TGTTCCACGTGATTAG	0.37 kcal/mol
CAAATCACGTGTTTGT	0.07 kcal/mol
GGAGTCACGTGATTGC	0.3 kcal/mol
CGGGACACGTGAGAGG	0.31 kcal/mol
TGTTGCACGTGGTTGT	-0.02 kcal/mol
TTAGCCACGTGTAGTG	-0.11 kcal/mol
TCAGGCACGTGTAGGC	0.07 kcal/mol
TTGGTCACGTGGCGCT	0 kcal/mol
GGGCACACGTGGCAGG	0.05 kcal/mol
TTTAACACGTGTCATG	0.09 kcal/mol
CCGTGCACGTGGTGAT	0.02 kcal/mol
GTTTGCACGTGCAGTT	-0.05 kcal/mol
GCGGTCACGTGAGTGT	0.29 kcal/mol
ATAAGCACGTGGGCTT	-0.2 kcal/mol
TAAGACACGTGCGTGT	-0.08 kcal/mol
CCTTGCACGTGTGAGT	0.13 kcal/mol
GAGGGCACGTGGTGTA	-0.1 kcal/mol
GTAGTCACGTGCGATG	0.13 kcal/mol

Sequence	relative binding free energy
CGTTGCACGTGGCTGT	-0.01 kcal/mol
GGTCTCACGTGATGTA	0.46 kcal/mol
GGAATCACGTGTAGGT	0.25 kcal/mol
TTAGACACGTGCGGTG	0.02 kcal/mol
GGAATCACGTGAATTG	0.23 kcal/mol
TGAAGCACGTGATGCG	0.04 kcal/mol
GTGTGCACGTGAATTC	0.29 kcal/mol
CTCATCACGTGAGGGG	0.37 kcal/mol
TTTTGCACGTGCATGG	0.1 kcal/mol
ATATTCACGTGGGTGA	0.1 kcal/mol
ACTATCACGTGGTGGA	0.26 kcal/mol
TTATGCACGTGCGTTG	-0.11 kcal/mol
ACATTCACGTGTAGGT	0.19 kcal/mol
TGTCTCACGTGTAATG	0.24 kcal/mol
GGAGACACGTGAGGAG	0.18 kcal/mol
AATAGCACGTGATGTT	0.03 kcal/mol
TTATTCACGTGTAATT	0.21 kcal/mol
TCTATCACGTGTTATT	0.09 kcal/mol
GTGTTCACGTGTTGTG	0.28 kcal/mol
GTGGTCACGTGGACCG	0.19 kcal/mol
CTGTACACGTGGGTAG	-0.16 kcal/mol
CGGTGCACGTGAAGGG	0.2 kcal/mol
CTTTGCACGTGTAGAT	0.28 kcal/mol
TTTACCACGTGGGGCG	-0.17 kcal/mol
CTTGGCACGTGAACGT	0.15 kcal/mol

Sequence	relative binding free energy
GGGGTCACGTGCGGTA	0.08 kcal/mol
TAGAGCACGTGTGTGT	-0.2 kcal/mol
AGTGCCACGTGTTTGC	-0.06 kcal/mol
AATGTCACGTGGGTGA	-0.01 kcal/mol
TGGGGCACGTGACTAG	-0.13 kcal/mol
TTAATCACGTGGGGTG	0 kcal/mol
TAGTTCACGTGACTGA	0.41 kcal/mol
GTATGCACGTGGTGTG	-0.04 kcal/mol
TAAGGCACGTGGAGAG	-0.09 kcal/mol
ATGGGCACGTGCTGGT	-0.06 kcal/mol
CGAGGCACGTGTTGGG	-0.07 kcal/mol
GGTATCACGTGGTATC	0.06 kcal/mol
TAGGTCACGTGTTGTG	0.17 kcal/mol
CGGTCCACGTGGTGGT	-0.09 kcal/mol
TGTAGCACGTGTTTCT	-0.13 kcal/mol
TGAGTCACGTGCGGGA	0.02 kcal/mol
TCTTTCACGTGCTGTT	0.25 kcal/mol
CGGTGCACGTGTGCGT	-0.13 kcal/mol
CTGCGCACGTGATGGA	0.14 kcal/mol
GGTTTCACGTGGCAGT	0.15 kcal/mol
TTTGGCACGTGTACGT	-0.18 kcal/mol
TGATCCACGTGTGTAT	0.1 kcal/mol
AGTTTCACGTGTTTAG	0.22 kcal/mol
CAATTCACGTGGGTTC	0.31 kcal/mol
TTATGCACGTGTTTTG	-0.06 kcal/mol

Sequence	relative binding free energy
TTTGACACGTGACGTG	-0.02 kcal/mol
GATGTCACGTGAAGGG	0.28 kcal/mol
TTTGACACGTGATGTA	0.03 kcal/mol
GGTAACACGTGGAAAG	0.07 kcal/mol
TGATGCACGTGGTAAT	0 kcal/mol
CTGGTCACGTGGTGAA	0.13 kcal/mol
GTAAACACGTGGGTCT	0 kcal/mol
AAGTGCACGTGATGGT	0.09 kcal/mol
TCAAGCACGTGATTTG	0.19 kcal/mol
TTGGTCACGTGGAGAT	0.24 kcal/mol
CGTATCACGTGTCGAG	0.25 kcal/mol
GGTGTCACGTGAGTTC	0.29 kcal/mol
TTTTGCACGTGAGGTT	0.35 kcal/mol
TAAGTCACGTGGTGCT	0.07 kcal/mol
CGGTGCACGTGTAGTT	-0.05 kcal/mol
ATTATCACGTGAATGT	0.18 kcal/mol
AAGGTCACGTGGTAGA	0.11 kcal/mol
GTGGGCACGTGCACGT	0.02 kcal/mol
CAGTGCACGTGTTTGG	0.05 kcal/mol
TATGTCACGTGACATT	0.31 kcal/mol
GTTATCACGTGTGACG	0.26 kcal/mol
TGGGGCACGTGCGCGG	-0.29 kcal/mol
AGTATCACGTGTGGGA	0.12 kcal/mol
GTCGGCACGTGTAGCG	-0.03 kcal/mol
GCTGACACGTGATTGG	0.31 kcal/mol

Sequence	relative binding free energy
GTAATCACGTGGTTAG	0.1 kcal/mol
TTTAACACGTGAATTA	0.21 kcal/mol
TTTTTCACGTGGCGTC	0.3 kcal/mol
AGGGTCACGTGACAGG	0.16 kcal/mol
AGTGCCACGTGGGATG	-0.29 kcal/mol
CCGGGCACGTGAGTGT	0.05 kcal/mol
TCTCTCACGTGGGTTG	0.07 kcal/mol
TCGAGCACGTGGAGGT	-0.28 kcal/mol
TAGGGCACGTGAGTCA	-0.01 kcal/mol
GGCTTCACGTGTTAGA	0.42 kcal/mol
TGGGGCACGTGGTAAG	-0.08 kcal/mol
GGCTTCACGTGTGTCT	0.42 kcal/mol
ATGGGCACGTGTTTAT	-0.09 kcal/mol
TGTCGCACGTGCAGGT	-0.19 kcal/mol
GAGTCCACGTGGATGT	0.09 kcal/mol
TATTACACGTGATAAT	0.14 kcal/mol
AGTGGCACGTGGACGT	-0.13 kcal/mol
AGATTCACGTGTGAAA	0.35 kcal/mol
GGTTTCACGTGTATCA	0.17 kcal/mol
TAGGGCACGTGGTGGG	-0.1 kcal/mol
TTTGGCACGTGTTCCA	-0.07 kcal/mol
